Here are results for nine cell lines from the supplement of paper PMC4967469.

Holding throughout (test): Viability of human cancer cell lines after 72 h of drug (GDSC screen)
Compound in one assay: O=c1[nH]cc(F)c(=O)[nH]1 [5-Fluorouracil]
Particulars: top dose 32 µM; top dose inferred. Here is the method:
(§1)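 Human cancer cell lines in 384-well plates, medium with 10% serum, drug for 72 h over a 256-fold dose range (nine 2-fold or five 4-fold steps up to the top dose). Adherent lines were fixed and stained with the nucleic acid dye Syto60, suspension lines read with resazurin; signal relative to control wells, capped at 0 and 100%. One two-parameter sigmoid per drug and line, fitted in a mixed model over all curves with the slope shared within a line.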

Compound in another assay: Fc1cc(-c2ccnc(Nc3ccc(-n4cnc(N5CCOCC5)n4)cc3)n2)cc(N2CCOCC2)c1 [JNK-9L]
As to conditions: top dose 5.12 µM; top dose inferred. Here is the method:
as §1

Compound in the next assay: C#Cc1cccc(Nc2ncnc3cc(OC)c(OCCCCCCC(=O)NO)cc23)c1 [CUDC-101]
Particulars: top dose 5.12 µM; top dose inferred. Here is the method:
as §1

Compound in another assay: NCC(=O)Nc1ccc(-n2nc(C(F)(F)F)cc2-c2ccc3c(ccc4ccccc43)c2)cc1 [OSU-03012]
As to conditions: top dose 16 µM; top dose inferred. Here is the method: as §1

Compound in the next assay: CC(C)(C)c1cc(NC(=O)Nc2ccc(-c3cn4c(n3)sc3cc(OCCN5CCOCC5)ccc34)cc2)no1 [AC220]
As to conditions: top dose 1.024 µM; top dose inferred. Here is the method: as §1

Compound in the next assay: COc1cc(F)c(F)c(Nc2ccc(I)cc2F)c1NS(=O)(=O)C1(C[C@H](O)CO)CC1 [RDEA119]
As to conditions: top dose 5 µM, top dose inferred. Here is the method:
as §1

Compound in another assay: OC[C@H](Cc1ccccc1)Nc1nc(Oc2ccc3c(c2)CCC3)nc2c1ncn2Cc1ccc(-c2ccccc2)cc1 [QS11]
Particulars: top dose 10.24 µM. Here is the method: as §1

By IC50 is meant the dose at which the fit gives 50% viability; fits outside the tested doses are given as limits. For AUC the same curve is integrated over the 256-fold range of doses and scaled to a fraction: 1 means no effect, lower means more sensitive. For some assays here: Where the top dose is marked as inferred, it was derived from the fitted curves, not read from the paper. For some assays here: An entry number marks a drug with two screens in the source, which often give different values.

On to “CESS (acute myeloid leukaemia, suspension)”, for which the AUC came to 0.526 with 5-Fluorouracil; 0.533 in the assay with JNK-9L; 0.315 with CUDC-101; 0.615 with OSU-03012; 0.955 in the assay with AC220; 0.976 with RDEA119 (screen: GDSC drug entry 1014). Moreover, the AUC is 0.948 with RDEA119 (screen: GDSC drug entry 1526) and 0.89 with QS11. Moreover, the IC50 is 2330 nM in the assay with 5-Fluorouracil; 389 nM with JNK-9L; 106 nM with CUDC-101; 1970 nM with OSU-03012; above 1020 nM with AC220; above 5000 nM with RDEA119 (screen: GDSC drug entry 1014). The IC50 is above 5000 nM with RDEA119 (screen: GDSC drug entry 1526) and 8880 nM in the assay with QS11.

For the cell line CGTH-W-1 (thyroid, adherent), the AUC with 5-Fluorouracil worked out at 0.934; with JNK-9L, 0.311; in the assay with CUDC-101, 0.657; with OSU-03012, 0.716; with AC220, 0.869; in the assay with RDEA119 (screen: GDSC drug entry 1014), 0.726. The AUC with QS11 came to 0.937. For the same cell line, the IC50 with 5-Fluorouracil is above 32000 nM; with JNK-9L it was 94.9 nM; in the assay with CUDC-101, 868 nM; with OSU-03012, 4080 nM; with AC220 it was 934 nM; in the assay with RDEA119 (screen: GDSC drug entry 1014), 1360 nM. Also, the half-inhibitory concentration (IC50) in the assay with QS11 was above 10200 nM.

With CHL-1 (melanoma, adherent), the AUC with 5-Fluorouracil turned out to be 0.926; in the assay with JNK-9L, 0.571; with CUDC-101, 0.318; with OSU-03012, 0.511; with AC220 it was 0.986; in the assay with RDEA119 (screen: GDSC drug entry 1014) it was 0.623. The results for the AUC with RDEA119 (screen: GDSC drug entry 1526) and with QS11 were 0.824 and 0.864, respectively. For the same cell line, the IC50 in the assay with 5-Fluorouracil was above 32000 nM; with JNK-9L it was 496 nM; with CUDC-101, 103 nM; in the assay with OSU-03012 it was 1070 nM; with AC220 it was above 1020 nM; in the assay with RDEA119 (screen: GDSC drug entry 1014) it was 666 nM. The values for the IC50 with RDEA119 (screen: GDSC drug entry 1526) and with QS11 were 2760 nM and 8120 nM, respectively.

As to CHP-126 (neuroblastoma, suspension), the AUC with 5-Fluorouracil came out at 0.461; in the assay with JNK-9L, 0.628; in the assay with CUDC-101, 0.738; with OSU-03012, 0.756; with AC220 it was 0.98; with RDEA119 (screen: GDSC drug entry 1014) it was 0.986. The AUC with RDEA119 (screen: GDSC drug entry 1526) was determined as 0.985; in the assay with QS11, 0.836. The IC50 with 5-Fluorouracil is 1560 nM; in the assay with JNK-9L it was 729 nM; in the assay with CUDC-101 it was 1560 nM; with OSU-03012 it was 5590 nM; with AC220 it was above 1020 nM; in the assay with RDEA119 (screen: GDSC drug entry 1014), above 5000 nM. The figures for the IC50 with RDEA119 (screen: GDSC drug entry 1526) and in the assay with QS11 were above 5000 nM and 7040 nM, respectively.

As for CHP-212 (neuroblastoma, adherent), the AUC with 5-Fluorouracil was 0.76; in the assay with JNK-9L, 0.494; with CUDC-101, 0.312; with OSU-03012, 0.779; with AC220 it was 0.985; with RDEA119 (screen: GDSC drug entry 1014) it was 0.122. For the same cell line, in the assay with QS11, the AUC is 0.923. Besides, the IC50 with 5-Fluorouracil was 10500 nM; with JNK-9L it was 309 nM; with CUDC-101 it was 100 nM; with OSU-03012, 6000 nM; with AC220, above 1020 nM; with RDEA119 (screen: GDSC drug entry 1014), 22.1 nM. In the assay with QS11, the IC50 is above 10200 nM.

For the cell line CHSA0011 (chondrosarcoma, adherent), the AUC was found to be 0.96 with 5-Fluorouracil; 0.878 with JNK-9L; 0.852 in the assay with CUDC-101; 0.98 with OSU-03012; 0.954 in the assay with AC220; 0.786 with RDEA119 (screen: GDSC drug entry 1014). Moreover, the AUC was determined as 0.687 in the assay with RDEA119 (screen: GDSC drug entry 1526) and 0.98 in the assay with QS11. In addition, the IC50 was above 32000 nM with 5-Fluorouracil; above 5120 nM with JNK-9L; above 5120 nM with CUDC-101; above 16000 nM with OSU-03012; above 1020 nM with AC220; 3160 nM with RDEA119 (screen: GDSC drug entry 1014). Further, the IC50 was 1300 nM with RDEA119 (screen: GDSC drug entry 1526) and above 10200 nM with QS11.

Turning to CHSA0108 (chondrosarcoma, adherent), the AUC with 5-Fluorouracil was 0.982; with JNK-9L, 0.549; with CUDC-101 it was 0.38; with OSU-03012 it was 0.888; with AC220, 0.982; with RDEA119 (screen: GDSC drug entry 1014), 0.847. In addition, the values for the AUC with RDEA119 (screen: GDSC drug entry 1526) and with QS11 were 0.761 and 0.966, respectively. For the same cell line, the IC50 was above 32000 nM in the assay with 5-Fluorouracil; 445 nM with JNK-9L; 142 nM with CUDC-101; above 16000 nM with OSU-03012; above 1020 nM with AC220; 4560 nM with RDEA119 (screen: GDSC drug entry 1014). For the same cell line, the IC50 is 2040 nM with RDEA119 (screen: GDSC drug entry 1526) and above 10200 nM with QS11.

In the case of CHSA8926 (chondrosarcoma, adherent), the AUC with 5-Fluorouracil stood at 0.944; with JNK-9L, 0.935; with CUDC-101, 0.882; with OSU-03012, 0.98; in the assay with AC220 it was 0.974; with RDEA119 (screen: GDSC drug entry 1014), 0.886. Moreover, the AUC is 0.867 with RDEA119 (screen: GDSC drug entry 1526) and 0.98 with QS11. In addition, the IC50 was above 32000 nM with 5-Fluorouracil; above 5120 nM with JNK-9L; above 5120 nM in the assay with CUDC-101; above 16000 nM with OSU-03012; above 1020 nM with AC220; above 5000 nM with RDEA119 (screen: GDSC drug entry 1014). Further, the IC50 with RDEA119 (screen: GDSC drug entry 1526) was above 5000 nM; with QS11 it was above 10200 nM.

As to CL-11 (large intestine, adherent), the AUC was found to be 0.947 in the assay with 5-Fluorouracil; 0.913 in the assay with JNK-9L; 0.907 with CUDC-101; 0.864 with OSU-03012; 0.986 in the assay with AC220; 0.509 in the assay with RDEA119 (screen: GDSC drug entry 1014). The AUC in the assay with RDEA119 (screen: GDSC drug entry 1526) was 0.406; with QS11, 0.979. Further, the IC50 with 5-Fluorouracil is above 32000 nM; in the assay with JNK-9L, above 5120 nM; with CUDC-101, above 5120 nM; in the assay with OSU-03012, above 16000 nM; with AC220, above 1020 nM; in the assay with RDEA119 (screen: GDSC drug entry 1014), 332 nM. For the same cell line, the half-inhibitory concentration (IC50) was 167 nM with RDEA119 (screen: GDSC drug entry 1526) and above 10200 nM with QS11.

Broadly, the IC50 is the concentration that gives 50% inhibition.
